Assay results: PubChem BioAssay AID651820 (National Center for Advancing Translational Sciences (NCATS), 2012)
Among all 340,000 compounds or so, about 12,000 (3.5%) were called active. The shares of active, inactive and inconclusive entries below differ from those in the screen. The call rests on the fitted dose curve; in most records, active means well fitted inhibition curve with a large enough effect; inconclusive means small, poorly fitted or top-dose-only effect, or another doubt; inactive means no such curve, though single readings can be large or run the other way. Potencies of inconclusive entries are left out as doubtful fits.

Assay: qHTS Assay for Inhibitors of Hepatitis C Virus (HCV)
Conditions: Huh7.5.1 HCVcc-Cre (HCVcc is cell-culture hepatitis C virus) infection, luciferase reporter, 44 h; activity change, negative = inhibition: at 41.8 µM (top of the series) unless noted
In short: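 1,000 cells/well; 4 h culture; + compound; + HCVcc-Cre (~0.5 moi); 44 h; luciferase substrate, RT 15 min; read 15 sec.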
On the % scale 0 is the no-effect control and ±100 the full control effect; potency means the concentration at half of the fitted maximal effect; tags describe the fitted curve by direction and shape.

| Structure (SMILES) | Potency | activity change, negative = inhibition |
| --- | --- | --- |
| O=c1cc(-c2ccccc2Cl)oc2c(NS(=O)(=O)c3cc(Cl)cc(Cl)c3O)ccc(O)c12 | inconclusive [inhibitor, partial curve] | – |
| O=C(Nc1ccccc1C(=O)N1CCN(Cc2ccccc2)CC1)c1ccc(F)cc1 | – | inactive: 7.15% |
| Cc1ccc(CSCC(=O)Nc2cc(S(=O)(=O)N3CCOCC3)ccc2OCC(F)(F)F)cc1 | inconclusive [inhibitor, single point] | – |
| CCC(CO)Oc1cc(NC(=O)Cc2ccccc2F)c2ncn(C(C)C)c2c1 (stereo not drawn) | inconclusive [inhibitor, single point] | – |
| COc1ccc(N2C(=O)CC(c3cc(OC)c(OC)c(OC)c3)CC2=O)cc1 | inconclusive [inhibitor, partial curve] | – |
| COc1ccc(/C=C/C(=O)OCC(=O)NCCc2ccccc2)c(OC)c1 | inconclusive [inhibitor, single point] | – |
| COC(=O)C1=C(c2ccc(-c3ccccc3)c(F)c2)C[C@@H]2CC[C@H]1N2C(=O)NCC1CC1 | inconclusive [inhibitor, full curve] | – |
| Cc1ccc(C)n1NC(=O)c1ccccc1[N+](=O)[O-] | – | inactive: 5.51% |
| CNCCCN1c2ccccc2CCc2ccccc21 | inconclusive [inhibitor, full curve] | – |
| O=C(CNc1cc(S(=O)(=O)N2CCCC2)ccc1OCC(F)(F)F)Nc1ccc(SC(F)F)cc1 | inconclusive [inhibitor, partial curve] | – |
| Cc1ccnc(NC(=O)CCN2C(=O)c3ccccc3S2(=O)=O)n1 | – | inactive: 9.61% |
| CS(=O)(=O)c1ccc(C(=O)Nc2cc(S(C)(=O)=O)ccc2Cl)cc1 | – | inactive: 16.9% |
| Cc1cc(NC(=S)NC(=O)/C=C/c2ccc(S(=O)(=O)N3CCOCC3)cc2)ccc1Br | inconclusive [inhibitor, partial curve] | – |
| COC(=O)c1c(C)oc2ccc(N(C(C)=O)S(=O)(=O)c3ccccc3)cc12 | inconclusive [inhibitor, single point] | – |
| Cc1c(O)ccc(/C(Cc2ccc3ccccc3n2)=N\N)c1O | inconclusive [inhibitor, partial curve] | – |
| Cc1csc(C(=O)O)c1-c1c(C)csc1C(=O)O | – | inactive: 3.33% |
| CCS(=O)(=O)NC(C)C(c1cccs1)N1CCN(C)CC1 (stereo not drawn) | inconclusive [inhibitor, partial curve] | – |
| Cc1ccc(C(=O)Nc2cc(C)c(OCC(=O)N3CCOCC3)c(C)c2)cc1 | inconclusive [inhibitor, full curve] | – |
| COc1ccc(S(=O)(=O)NCc2cccnc2)cc1C(=O)N1CCCCC1 | – | inactive: 16.6% |
| Cn1c(=O)n(C)c2cc(C(=O)Nc3ccc4c(c3)OCO4)ccc21 | inconclusive [inhibitor, single point] | – |
| COc1cc(/C=N/Nc2nc(Nc3ccccc3)nc(-n3nc(C)cc3C)n2)cc(OC)c1OC | active: 2.82 µM | – |
| COc1ccc(-n2nc(C(=O)NCC(=O)NCc3cccc(F)c3)c3ccccc3c2=O)cc1Cl | inconclusive [inhibitor, single point] | – |
| Cc1cc(C)cc(NC(=O)Nc2cccnc2)c1 | inconclusive [inhibitor, single point] | – |

| Structure (SMILES) | Potency | activity change, negative = inhibition |
| --- | --- | --- |
| CCOc1ccc(CCNC(=O)COC(=O)c2cc(OC)c(OC)cc2[N+](=O)[O-])cc1OCC | inconclusive [inhibitor, partial curve, poor fit] | – |
| O=S(=O)(Nc1nc(SCc2ccc(Cl)cc2)n[nH]1)c1ccc(F)cc1 | – | inactive: -29.5% |
| N#CC1=C(c2ccccc2)/C(=C/c2ccccc2)OC1=O | inconclusive [inhibitor, partial curve] | – |
| O=S(=O)(c1ccc(Cl)cc1)c1snnc1-c1ccccc1 | active: 12.6 µM | – |
| CSc1cccc(NC(=O)CCCOc2ccc(Cl)cc2Cl)c1 | inconclusive [inhibitor, single point] | – |
| Cc1cc(C(=O)N2CCCC(N3CCN(c4cccc(C(F)(F)F)c4)CC3)C2)c(C)o1 (stereo not drawn) | active: 12.6 µM | – |
| CCOc1ccc(Cl)cc1/C=N/O | inconclusive [inhibitor, full curve] | – |
| Cc1ccccc1OCCC(=O)N(Cc1ccccc1)c1c(N)n(Cc2ccccc2)c(=O)[nH]c1=O | inconclusive [inhibitor, full curve, poor fit] | – |
| Cn1cc(CNCc2cnc3ccccn23)c(-c2ccc(Oc3ccccc3)cc2)n1 | inconclusive [inhibitor, single point] | – |
| Cc1cc(C)c(CN2CCN(Cc3ccc(C)o3)C(CCO)C2)c(-n2cccn2)c1 (stereo not drawn) | inconclusive [inhibitor, partial curve, poor fit] | – |
| Fc1ccc(NC(=S)Nc2cccc3ccccc23)cc1F | inconclusive [inhibitor, single point] | – |
| CCNc1ccc(P(=O)(c2ccccc2)c2ccccc2)cc1 | inconclusive [inhibitor, single point] | – |
| COc1cccc(-c2nnn(CC(=O)Nc3cc(OC)c(NC(=O)c4ccco4)cc3OC)n2)c1 | inconclusive [inhibitor, partial curve] | – |
| COc1cc(NS(=O)(=O)c2ccc(NC(C)=O)cc2)cc(OC)c1 | inconclusive [inhibitor, partial curve] | – |
| CC(C)(C)NC(=O)CN(C(=O)c1snc(C(=O)NC2CCCCC2)c1N)c1ccc(F)cc1 | – | inactive: -5.45% |
| CC(=O)OC1CCC2C3CCC4=C(CC(F)C(=O)C4)C3CCC12C (stereo not drawn) | inconclusive [inhibitor, single point] | – |
| CCc1nc2c(sc3nc4c(cc32)COC(C)(C)C4)c(=O)n1CCN(CC)CC | inconclusive [inhibitor, single point] | – |
| O=C(Nc1cc(C(F)(F)F)ccc1N1CCOCC1)c1ccccc1F | inconclusive [inhibitor, partial curve] | – |
| CCOCC(=O)Nc1ccc(Br)c(C)c1 | – | inactive: -12.4% |
| CNC(=S)NNC(=O)c1sccc1OCc1cccc(C(F)(F)F)c1 | – | inactive: 13.3% |
| O=C1CN(C(=O)COC(=O)/C=C/c2ccc(OC(F)F)cc2)c2ccccc2N1 | inconclusive [inhibitor, single point] | – |
| O=C(Nc1nc(-c2cccnc2)cs1)c1ccc([N+](=O)[O-])cc1 | inconclusive [inhibitor, full curve, poor fit] | – |
| Cc1nnsc1NC(=O)OCc1ccc(C(C)(C)C)cc1 | inconclusive [inhibitor, partial curve] | – |

| Structure (SMILES) | Potency | activity change, negative = inhibition |
| --- | --- | --- |
| O=C(Nc1ccc(F)cc1)Nc1nnc(-c2ccncc2)s1 | active: 25.1 µM | – |
| O=C(NCCN1CCC(Cc2ccccc2)CC1)C1CCN(S(=O)(=O)N2CCC3(CC2)OCCO3)CC1 | active: 6.31 µM | – |
| CCOc1ccc2oc(C(=O)OCC(=O)NCC3CCCO3)c(C)c2c1 (stereo not drawn) | inconclusive [inhibitor, partial curve, poor fit] | – |
| CC(C)(C)c1cc(C(=O)N/N=C/c2ccc(F)cc2)n(-c2ccccc2)n1 | inconclusive [inhibitor, partial curve, poor fit] | – |
| Cc1ccc(S(=O)(=O)N2CCOCC2)cc1NC(=O)c1cc2ccccc2oc1=O | – | inactive: 8.4% |
| CCCCn1c(N)c(N(CC(C)C)C(=O)c2cccc(OCc3ccccc3)c2)c(=O)[nH]c1=O | inconclusive [inhibitor, single point] | – |
| Cc1ccccc1Cn1c(=N)n(CC(O)c2ccco2)c2ccccc21 (stereo not drawn) | inconclusive [inhibitor, partial curve] | – |
| Cc1[nH]c2ccccc2c1/C=N/NC(=O)Cc1cccs1 | inconclusive [inhibitor, single point] | – |
| CC(=O)NS(=O)(=O)c1ccc(NC(=O)CC23CC4CC(CC(Br)(C4)C2)C3)cc1 | – | inactive: 29.4% |
| Cc1ccc(NC(=O)Nc2nnc(-c3ccccc3)o2)cc1 | – | inactive: 0.581% |
| CCn1c(CNS(=O)(=O)c2ccc(Br)cc2)nnc1SC | – | inactive: 18.9% |
| CN1CCN(S(=O)(=O)c2ccc(NC(=O)COc3ccccc3)cc2)CC1 | – | inactive: 23.8% |
| COc1cccc(NC(=O)CN2CCN(c3nc(-c4cccc(OC)c4)cs3)CC2)c1 | inconclusive [inhibitor, partial curve] | – |
| O=C1C=C(c2cc(F)ccc2F)C[C@@H](c2ccc(Cl)cc2)C1 | inconclusive [inhibitor, single point] | – |
| Cc1nc2cc(-c3ccccc3)nn2c(C)c1CCC(=O)NCc1ccco1 | – | inactive: -16.2% |
| Nc1ncnc2c1ncn2[C@@H]1O[C@H](CNC(=O)[C@@H](N)Cc2ccccc2)[C@@H](O)[C@H]1O | – | inactive: -0.0439% |
| CCCCn1c(N)c(N(CC)C(=O)c2cc(C)cc(C)c2)c(=O)[nH]c1=O | – | inactive: -3.03% |
| Cc1cccc(NC(=S)NC(C)C(c2ccccc2)N2CCN(C)CC2)c1C (stereo not drawn) | inconclusive [inhibitor, partial curve] | – |
| CC(C)c1ccc(C(=O)NCCCN2CCN(CCCNC(=O)c3ccc(C(C)C)cc3)CC2)cc1 | inconclusive [inhibitor, partial curve] | – |
| CCOC(=O)C1(C)C=C(Nc2ccccc2)C(=O)N1c1ccccc1 (stereo not drawn) | inconclusive [inhibitor, single point] | – |
| CCNc1nc(NCC)n2c(SCC(=O)Nc3ccccc3F)nnc2n1 | inconclusive [inhibitor, single point] | – |
| COc1ccc2nc(C)cc(SCC(=O)N/N=C/c3cccc4ccccc34)c2c1 | active: 10 µM | – |
